Where “and” joins values, the source holds several entries; their conditions need not be identical. Equal values may be shown once. This continues a long series; more values of the same kind are listed elsewhere. Toxic doses and inconclusive results are not listed.

The test has as its system P388 leukemia ip, CD2F1 mice, survival T/C. The experiment in a line: NCI In Vivo Anticancer Drug Screen. Data for tumor model P388 Leukemia (intraperitoneal) in CD2F1 (CDF1) mice. As to conditions: endpoint: median survival time, higher = longer survival. The protocol:
The antitumor activity of compounds was measured in mice bearing transplantable tumors. Survival or tumor size were measured and the results are expressed as the measurement made in the treated group (T) divided by the measurement made in the vehicle treated control group (C). The tumor model used in this assay is P388 Leukemia (intraperitoneal) in CD2F1 (CDF1) mice

With `O=P1(N(CCCl)CCCl)NCCCO1` (stereo not drawn), the T/C is 527 % of control (dose: 73.0 mg/kg/injection, schedule: Q04DX003 (ip), vehicle: saline); 460 % of control and 530 % of control (dose: 110.0 mg/kg/injection, schedule: Q04DX003 (ip), vehicle: saline); 441 % of control (dose: 120.0 mg/kg/injection, schedule: Q04DX003 (ip), vehicle: saline); 92 % of control (dose: 180.0 mg/kg/injection, schedule: Q01DX001 (ip), vehicle: saline); 87 % of control (dose: 200.0 mg/kg/injection, schedule: Q01DX009 (ip), vehicle: saline); 446 % of control (dose: 267.0 mg/kg/injection, schedule: Q01DX001 (ip), vehicle: water). In addition, the T/C (dose: 320.0 mg/kg/injection, schedule: Q04DX003 (ip), vehicle: water) was 92 % of control and the T/C (dose: 600.0 mg/kg/injection, schedule: Q01DX001 (ip), vehicle: water) is 66 % of control.

(Values after PubChem BioAssay AID330 (DTP/NCI, 2004).)
